# Some of the results follow.
# B1: CGL (Crenomytilus grayanus), H2FH31 (protein)
# chain: MTTFLIKHKASGKFLHPYGGSSNPANNTKLVLHSDIHERMYFQFDVVDERWGYIKHVASGKIVHPYGGQANPPNETNMVLHQDRHDRALFAMDFFNDNIMHKGGKYIHPKGGSPNPPNNTETVIHGDKHAAMEFIFVSPKNKDKRVLVYA
# Assays:
# Experiment in all cases: glycan array binding signal (z-score within array); higher = stronger binding
# Conditions in all cases: glycan notation: IUPAC condensed, linker removed
# [1] = biological target: Fuc(a1-2)Gal6S(b1-3)GlcNAc
# Summary of the method: (§1)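 Arrays were curated from the Consortium for Functional Glycomics database, 3228 in total, and kept only where the protein sequence was available. Binding is expressed as a within-array Z-score. This score was averaged across arrays of the same protein sequence at different concentrations or buffers and across linkers, and negative values can be read as non-binding.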
# [2] = biological target: Fuc(a1-2)Gal6S(b1-3)GlcNAc6S
# Summary of the method: as §1
# Fuc(a1-2)Gal6S(b1-4)Glc = biological target: Fuc(a1-2)Gal6S(b1-4)Glc
# Summary of the method: as §1
# [3] = biological target: Fuc(a1-2)Gal6S(b1-4)Glc6S
# Summary of the method: as §1
# Fuc(a1-2)[Gal(a1-3)]Gal = biological target: Fuc(a1-2)[Gal(a1-3)]Gal
# Summary of the method: as §1
# [4] = biological target: Fuc(a1-2)[Gal(a1-3)]Gal(b1-3)GalNAc
# Summary of the method: as §1
# [5] = biological target: Fuc(a1-2)[Gal(a1-3)]Gal(b1-3)GalNAc(b1-3)Gal(a1-4)Gal(b1-4)Glc
# Summary of the method: as §1
# [6] = biological target: Fuc(a1-2)[Gal(a1-3)]Gal(b1-3)GlcNAc
# Summary of the method: as §1
# [7] = biological target: Fuc(a1-2)[Gal(a1-3)]Gal(b1-3)GlcNAc(b1-2)Man(a1-3)[Fuc(a1-2)[Gal(a1-3)]Gal(b1-3)GlcNAc(b1-2)Man(a1-6)]Man(b1-4)GlcNAc(b1-4)GlcNAc
# Summary of the method: as §1
# [8] = biological target: Fuc(a1-2)[Gal(a1-3)]Gal(b1-3)GlcNAc(b1-2)Man(a1-3)[Fuc(a1-2)[Gal(a1-3)]Gal(b1-3)GlcNAc(b1-2)Man(a1-6)]Man(b1-4)GlcNAc(b1-4)[Fuc(a1-6)]GlcNAc
# Summary of the method: as §1
# [9] = biological target: Fuc(a1-2)[Gal(a1-3)]Gal(b1-3)GlcNAc(b1-3)GalNAc
# Summary of the method: as §1
# [10] = biological target: Fuc(a1-2)[Gal(a1-3)]Gal(b1-3)GlcNAc(b1-6)GalNAc
# Summary of the method: as §1
# [11] = biological target: Fuc(a1-2)[Gal(a1-3)]Gal(b1-4)Glc
# Summary of the method: as §1
# [12] = biological target: Fuc(a1-2)[Gal(a1-3)]Gal(b1-4)GlcNAc
# Summary of the method: as §1
# [13] = biological target: Fuc(a1-2)[Gal(a1-3)]Gal(b1-4)GlcNAc(b1-2)Man
# Summary of the method: as §1
# [14] = biological target: Fuc(a1-2)[Gal(a1-3)]Gal(b1-4)GlcNAc(b1-2)Man(a1-3)[Fuc(a1-2)[Gal(a1-3)]Gal(b1-4)GlcNAc(b1-2)Man(a1-6)]Man(b1-4)GlcNAc(b1-4)GlcNAc
# Summary of the method: as §1
# [15] = biological target: Fuc(a1-2)[Gal(a1-3)]Gal(b1-4)GlcNAc(b1-2)Man(a1-3)[Fuc(a1-2)[Gal(a1-3)]Gal(b1-4)GlcNAc(b1-2)Man(a1-6)]Man(b1-4)GlcNAc(b1-4)[Fuc(a1-6)]GlcNAc
# Summary of the method: as §1
# [16] = biological target: Fuc(a1-2)[Gal(a1-3)]Gal(b1-4)GlcNAc(b1-3)GalNAc
# Summary of the method: as §1
# [17] = biological target: Fuc(a1-2)[Gal(a1-3)]Gal(b1-4)GlcNAc(b1-3)[Fuc(a1-2)[Gal(a1-3)]Gal(b1-4)GlcNAc(b1-6)]GalNAc
# Summary of the method: as §1
# [18] = biological target: Fuc(a1-2)[Gal(a1-3)]Gal(b1-4)GlcNAc(b1-6)GalNAc
# Summary of the method: as §1
# [19] = biological target: Fuc(a1-2)[Gal(a1-3)]Gal(b1-4)[Fuc(a1-3)]Glc
# Summary of the method: as §1
# [20] = biological target: Fuc(a1-2)[Gal(a1-3)]Gal(b1-4)[Fuc(a1-3)]GlcNAc
# Summary of the method: as §1
# [21] = biological target: Fuc(a1-2)[Gal(a1-3)]Gal(b1-4)[Fuc(a1-3)]GlcNAc(b1-3)GalNAc
# Summary of the method: as §1
# [22] = biological target: Fuc(a1-2)[Gal(a1-4)]Gal(b1-4)GlcNAc
# Summary of the method: as §1
# [23] = biological target: Fuc(a1-2)[GalNAc(a1-3)]Gal
# Summary of the method: as §1
# [24] = biological target: Fuc(a1-2)[GalNAc(a1-3)]Gal(b1-3)GalNAc(a1-3)[Fuc(a1-2)]Gal(b1-4)GlcNAc
# Summary of the method: as §1
# [25] = biological target: Fuc(a1-2)[GalNAc(a1-3)]Gal(b1-3)GalNAc(b1-3)Gal(a1-4)Gal(b1-4)Glc
# Summary of the method: as §1
# [26] = biological target: Fuc(a1-2)[GalNAc(a1-3)]Gal(b1-3)GlcNAc
# Summary of the method: as §1
# [27] = biological target: Fuc(a1-2)[GalNAc(a1-3)]Gal(b1-3)GlcNAc(b1-2)Man(a1-3)[Fuc(a1-2)[GalNAc(a1-3)]Gal(b1-3)GlcNAc(b1-2)Man(a1-6)]Man(b1-4)GlcNAc(b1-4)GlcNAc
# Summary of the method: as §1
# [28] = biological target: Fuc(a1-2)[GalNAc(a1-3)]Gal(b1-3)GlcNAc(b1-2)Man(a1-3)[Fuc(a1-2)[GalNAc(a1-3)]Gal(b1-3)GlcNAc(b1-2)Man(a1-6)]Man(b1-4)GlcNAc(b1-4)[Fuc(a1-6)]GlcNAc
# Summary of the method: as §1
# [29] = biological target: Fuc(a1-2)[GalNAc(a1-3)]Gal(b1-3)GlcNAc(b1-3)GalNAc
# Summary of the method: as §1
# [30] = biological target: Fuc(a1-2)[GalNAc(a1-3)]Gal(b1-3)GlcNAc(b1-6)GalNAc
# Summary of the method: as §1
# [31] = biological target: Fuc(a1-2)[GalNAc(a1-3)]Gal(b1-4)Glc
# Summary of the method: as §1
# [32] = biological target: Fuc(a1-2)[GalNAc(a1-3)]Gal(b1-4)GlcNAc
# Summary of the method: as §1
# [33] = biological target: Fuc(a1-2)[GalNAc(a1-3)]Gal(b1-4)GlcNAc(b1-2)Man
# Summary of the method: as §1
# [34] = biological target: Fuc(a1-2)[GalNAc(a1-3)]Gal(b1-4)GlcNAc(b1-2)Man(a1-3)[Fuc(a1-2)[GalNAc(a1-3)]Gal(b1-4)GlcNAc(b1-2)Man(a1-6)]Man(b1-4)GlcNAc(b1-4)GlcNAc
# Summary of the method: as §1
# [35] = biological target: Fuc(a1-2)[GalNAc(a1-3)]Gal(b1-4)GlcNAc(b1-2)Man(a1-3)[Fuc(a1-2)[GalNAc(a1-3)]Gal(b1-4)GlcNAc(b1-2)Man(a1-6)]Man(b1-4)GlcNAc(b1-4)[Fuc(a1-6)]GlcNAc
# Summary of the method: as §1
# [36] = biological target: Fuc(a1-2)[GalNAc(a1-3)]Gal(b1-4)GlcNAc(b1-3)Gal(b1-4)GlcNAc
# Summary of the method: as §1
# [37] = biological target: Fuc(a1-2)[GalNAc(a1-3)]Gal(b1-4)GlcNAc(b1-3)Gal(b1-4)GlcNAc(b1-3)Gal(b1-4)GlcNAc
# Summary of the method: as §1
# [38] = biological target: Fuc(a1-2)[GalNAc(a1-3)]Gal(b1-4)GlcNAc(b1-3)GalNAc
# Summary of the method: as §1
# [39] = biological target: Fuc(a1-2)[GalNAc(a1-3)]Gal(b1-4)GlcNAc(b1-3)[Fuc(a1-2)[GalNAc(a1-3)]Gal(b1-4)GlcNAc(b1-6)]GalNAc
# Summary of the method: as §1
# [40] = biological target: Fuc(a1-2)[GalNAc(a1-3)]Gal(b1-4)GlcNAc(b1-6)GalNAc
# Summary of the method: as §1
# [41] = biological target: Fuc(a1-2)[GalNAc(a1-3)]Gal(b1-4)[Fuc(a1-3)]GlcNAc
# Summary of the method: as §1
# [42] = biological target: Fuc(a1-2)[GalNAc(a1-3)]Gal(b1-4)[Fuc(a1-3)]GlcNAc(b1-3)GalNAc
# Summary of the method: as §1
# [43] = biological target: Fuc(a1-2)[GalNAc(a1-4)]Gal(b1-4)GlcNAc
# Summary of the method: as §1
binder,measurement,setting,value
B1,glycan array binding signal (z-score),[1],-0.334
same,glycan array binding signal (z-score),[2],-0.374
same,glycan array binding signal (z-score),Fuc(a1-2)Gal6S(b1-4)Glc,-0.392
same,glycan array binding signal (z-score),[3],-0.4
same,glycan array binding signal (z-score),Fuc(a1-2)[Gal(a1-3)]Gal,-0.126
same,glycan array binding signal (z-score),[4],-0.282
same,glycan array binding signal (z-score),[5],-0.379
same,glycan array binding signal (z-score),[6],-0.362
same,glycan array binding signal (z-score),[7],-0.328
same,glycan array binding signal (z-score),[8],-0.386
same,glycan array binding signal (z-score),[9],-0.364
same,glycan array binding signal (z-score),[10],-0.361
same,glycan array binding signal (z-score),[11],-0.298
same,glycan array binding signal (z-score),[12],-0.063
same,glycan array binding signal (z-score),[13],-0.384
same,glycan array binding signal (z-score),[14],-0.308
same,glycan array binding signal (z-score),[15],-0.343
same,glycan array binding signal (z-score),[16],-0.376
same,glycan array binding signal (z-score),[17],-0.269
same,glycan array binding signal (z-score),[18],-0.315
same,glycan array binding signal (z-score),[19],-0.375
same,glycan array binding signal (z-score),[20],-0.338
same,glycan array binding signal (z-score),[21],-0.441
same,glycan array binding signal (z-score),[22],4.38
same,glycan array binding signal (z-score),[23],-0.106
same,glycan array binding signal (z-score),[24],-0.359
same,glycan array binding signal (z-score),[25],-0.338
same,glycan array binding signal (z-score),[26],-0.318
same,glycan array binding signal (z-score),[27],-0.367
same,glycan array binding signal (z-score),[28],-0.343
same,glycan array binding signal (z-score),[29],-0.28
same,glycan array binding signal (z-score),[30],-0.464
same,glycan array binding signal (z-score),[31],-0.38
same,glycan array binding signal (z-score),[32],-0.37
same,glycan array binding signal (z-score),[33],-0.438
same,glycan array binding signal (z-score),[34],-0.344
same,glycan array binding signal (z-score),[35],-0.23
same,glycan array binding signal (z-score),[36],-0.355
same,glycan array binding signal (z-score),[37],-0.18
same,glycan array binding signal (z-score),[38],-0.417
same,glycan array binding signal (z-score),[39],-0.249
same,glycan array binding signal (z-score),[40],-0.096
same,glycan array binding signal (z-score),[41],-0.326
same,glycan array binding signal (z-score),[42],-0.217
same,glycan array binding signal (z-score),[43],1.82

# — the supplement of paper PMC8728848
